{"source": "PubChem BioAssay AID504832", "about": "(National Center for Advancing Translational Sciences (NCATS), 2011)", "note": "Screen size: about 310,000 compounds; about 18,000 (5.8%) were called active. This list was built around the results that the source calls inconclusive (neither active nor inactive); the mix of calls is not that of the screen. The call rests on the fitted dose curve; in most records, active means well fitted inhibition curve with a large enough effect; inconclusive means small, poorly fitted or top-dose-only effect, or another doubt; inactive means no such curve, though single readings can be large or run the other way. No potency is given beside an inconclusive call; the fits are too rough. On the % scale 0 is the no-effect control and ±100 the full control effect; potency means the concentration at half of the fitted maximal effect; tags describe the fitted curve by direction and shape.", "data": [{"assay": "Primary qHTS for delayed death inhibitors of the malarial parasite plastid, 48 hour incubation", "settings": "P. falciparum luciferase growth in erythrocytes; series mostly up to 28.7 µM; activity change, negative = inhibition: at the top concentration", "how_it_was_run": "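In quantitative HTS format, infected erythrocytes bearing luciferase-reporter parasites were treated for a single generation at 37 C. Luminescence after adding detection reagent served as the growth measure.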", "values": [{"compound": "Cc1ccc(NC(=O)CSc2nnc(Cc3ccccc3)o2)c(C)c1", "Potency": "inconclusive [inhibitor, full curve, poor fit]"}, {"compound": "Cc1cc(OC(C)C(=O)NCc2cccnc2)c2c(C)c(Cc3ccccc3)c(=O)oc2c1", "note": "(configuration not stated)", "Potency": "inconclusive [inhibitor, partial curve]"}, {"compound": "CCC(Sc1ccc2nnc(-c3ccc(F)cc3)n2n1)C(=O)O", "note": "(configuration not stated)", "Potency": "inconclusive [inhibitor, partial curve, poor fit]"}, {"compound": "Cc1ccc2c(C)nc(/N=C(\\N)NC(=O)N3c4ccccc4Sc4ccccc43)nc2c1", "Potency": "active: 13.1 µM"}, {"compound": "Cc1[nH]c2c(C(=O)N3CCCC(CCC(=O)NCc4ccccc4F)C3)cccc2c1C", "note": "(configuration not stated)", "Potency": "active: 11.7 µM"}, {"compound": "N[C@@H](Cc1cc(Br)c(O)c(Br)c1)C(=O)O", "activity change, negative = inhibition": "inactive: -5.21%"}, {"compound": "CC(C)c1ccc(NC(=S)NC2CCN(Cc3ccccc3)CC2)cc1", "Potency": "active: 10.4 µM"}, {"compound": "Cc1onc(-c2ccccc2)c1C(=O)N=C(N)c1ccc(Cl)cc1", "activity change, negative = inhibition": "inactive: 3.78%"}, {"compound": "COc1ccccc1NC(=O)OC(C)c1ccc(Cl)cc1", "note": "(configuration not stated)", "activity change, negative = inhibition": "inactive: -7.3%"}, {"compound": "CC(=O)Nc1nc2ccc(C(=O)NC3CCCCC3)cc2s1", "Potency": "inconclusive [inhibitor, single point]"}, {"compound": "Cc1cc2c(nc1C)CCCN2C[C@@H](C)O/N=C1/[C@H]2CCn3c(=O)n(-c4ccccc4)c(=O)n3[C@H]2[C@H](O)[C@@H]2O[C@H]12", "Potency": "inconclusive [inhibitor, partial curve]"}, {"compound": "COc1ccc(CNc2nc(-c3ccccc3)nc3ccccc23)cc1OC", "Potency": "inconclusive [inhibitor, single point]"}, {"compound": "CCCOP(=O)(OCCC)C(NC(=O)C(C)(C)C)c1ccccc1", "note": "(configuration not stated)", "activity change, negative = inhibition": "inactive: 0.307%"}, {"compound": "COc1ccc(NC(=O)c2cc3nc(-c4ccccc4)cc(-c4ccccc4)n3n2)c(OC)c1", "Potency": "inconclusive [inhibitor, partial curve, poor fit]"}, {"compound": "Cc1ccc(NC(=O)CS(=O)(=O)c2c[nH]c3ccccc23)c(C)c1", "activity change, negative = inhibition": "inactive: 3.96%"}, {"compound": "C=CCn1c(SCc2cc(C(C)=O)ccc2OCC)nc2ccccc2c1=O", "Potency": "inconclusive [inhibitor, partial curve, poor fit]"}, {"compound": "O=S(=O)(Nc1ccc2c(c1)nc1n2CCN(Cc2ccccc2)C1)c1ccc(Cl)cc1", "Potency": "active: 9.28 µM"}, {"compound": "COC(=O)c1[nH]c2cc(C)ccc2c1NC(=O)CN1CCc2cc(OC)c(OC)cc2C1", "Potency": "inconclusive [inhibitor, partial curve, poor fit]"}, {"compound": "COc1ccc(-n2cc3c(-c4cccc(Br)c4)nnc(C)c3n2)cc1", "Potency": "inconclusive [inhibitor, single point]"}, {"compound": "CC(Sc1nc(NC(C)(C)C)nc(N(C)C)n1)C(=O)Nc1ccccc1", "note": "(configuration not stated)", "Potency": "inconclusive [inhibitor, partial curve, poor fit]"}, {"compound": "N/C(=N\\OC(=O)CCCOc1ccccc1)c1cccc([N+](=O)[O-])c1", "activity change, negative = inhibition": "inactive: 10.3%"}, {"compound": "CCCCSc1nc2c(=O)[nH][nH]c(=O)c2n1Cc1ccccc1", "activity change, negative = inhibition": "inactive: -2.96%"}, {"compound": "COc1cccc(C(C(=O)NC(C)(C)C)N(CC(C)C)C(=O)CCC(=O)Nc2cc(C)on2)c1OC", "note": "(configuration not stated)", "Potency": "inconclusive [inhibitor, partial curve]"}, {"compound": "C=CCn1c(-c2cccc(OC)c2)n[nH]c1=S", "activity change, negative = inhibition": "inactive: 1.9%"}, {"compound": "C/C(=N/NC(=O)COc1cc(C)ccc1C(C)C)C(=O)O", "Potency": "inconclusive [inhibitor, single point]"}, {"compound": "Cc1cccc(N2CCN(C(=O)CCNS(=O)(=O)c3ccc4c(c3)oc(=O)n4C)CC2C)c1", "note": "(configuration not stated)", "Potency": "inconclusive [inhibitor, single point]"}, {"compound": "COc1cccc(-c2n[nH]c3c2CCC3)c1", "Potency": "inconclusive [inhibitor, full curve, poor fit]"}, {"compound": "CC12CCC(C(=O)Nc3ccc(Cl)cc3)([C@H](Br)C1=O)C2(C)C", "note": "(some centres not stated)", "Potency": "inconclusive [inhibitor, partial curve, poor fit]"}, {"compound": "Brc1ccccc1CN1CCC(Cc2ccccc2)CC1", "activity change, negative = inhibition": "inactive: -1.06%"}, {"compound": "COCC(=O)N(Cc1cc2ccc(C)cc2[nH]c1=O)c1ccccc1C", "Potency": "inconclusive [inhibitor, single point]"}, {"compound": "NS(=O)(=O)c1ccc(N2CCN(C(=O)C3COc4ccccc4O3)CC2)nc1", "note": "(configuration not stated)", "activity change, negative = inhibition": "inactive: 4.45%"}, {"compound": "CCCCCOc1ccc(Br)cc1CSC(=N)N", "Potency": "active: 10.4 µM"}, {"compound": "Cc1cc(C(=O)CCC(=O)N(C)CC(=O)Nc2ccc(OC(F)(F)F)cc2)c(C)s1", "Potency": "inconclusive [inhibitor, partial curve, poor fit]"}, {"compound": "COc1ccc(Cl)cc1NC(=O)CN1CCC(n2nnc3ccccc32)CC1", "Potency": "inconclusive [inhibitor, single point]"}, {"compound": "CN(Cc1ccc(OC(F)F)cc1)C(=O)C1CCN(S(=O)(=O)c2ccc3c(c2)OCCO3)CC1", "Potency": "inconclusive [inhibitor, single point]"}, {"compound": "CC(C)[C@H]1CN=C2N(C[C@H](C)NC(=O)CCC3CCCCC3)[C@H](Cc3ccc(O)cc3)CN21", "Potency": "active: 11.7 µM"}, {"compound": "O=c1c2ccccc2nc(/C=C/c2c[nH]c3ccccc23)n1-c1ccc([N+](=O)[O-])cc1", "Potency": "inconclusive [inhibitor, single point]"}, {"compound": "CC(C)Cn1c(=O)c2c(nc3n2CCCN3Cc2ccccc2)n(C)c1=O", "Potency": "active: 10.4 µM"}, {"compound": "COCC(=O)N1CCC(Oc2ccc(C(=O)N3CCSCC3)cc2)CC1", "activity change, negative = inhibition": "inactive: 17.8%"}, {"compound": "CCOC(=O)c1c(NC(=O)C[n+]2ccc(Cc3ccccc3)cc2)sc(C)c1C", "Potency": "inconclusive [inhibitor, single point]"}, {"compound": "O=C(C1CCCN(Cc2ccc(Br)cc2)C1)N1CCCCC1", "note": "(configuration not stated)", "activity change, negative = inhibition": "inactive: -9.48% [at 0.00184 µM]"}, {"compound": "CC(=O)c1csc(COc2ccccc2)n1", "activity change, negative = inhibition": "inactive: 65.8%"}, {"compound": "CCOC(=O)C1CCN(C(=O)c2cccc(N3C(=O)NC4CC3(C)Oc3ccc(C)cc34)c2)CC1", "note": "(configuration not stated)", "Potency": "inconclusive [inhibitor, single point]"}, {"compound": "COc1cc(-c2nnc(COC(=O)c3c4c(nc5ccccc35)CCCC4)o2)cc(OC)c1OC", "Potency": "inconclusive [inhibitor, partial curve, poor fit]"}, {"compound": "Cc1cc(C)n(-c2ccc(Cl)c(C(=O)Nc3cc(C(F)(F)F)ccc3Cl)n2)n1", "activity change, negative = inhibition": "inactive: 10.3%"}, {"compound": "CCOC(=O)C(C)Sc1nc(-c2ccccc2)nc2ccc(F)cc12", "note": "(configuration not stated)", "Potency": "inconclusive [inhibitor, single point]"}, {"compound": "Cc1ccc(S(=O)(=O)N2CCC(C(=O)NNC(=O)C3CC3)CC2)cc1Cl", "Potency": "inconclusive [inhibitor, single point]"}, {"compound": "Cc1ccc(C(=O)NC2CCN(C(=O)NCc3ccccc3)CC2)cc1", "Potency": "inconclusive [inhibitor, full curve, poor fit]"}, {"compound": "COc1cccc(NC(=O)CSc2nnc(Cc3cccn3C)n2-c2ccc(F)cc2)c1", "Potency": "inconclusive [inhibitor, single point]"}, {"compound": "CCOC(=O)c1ccccc1NC(=O)Cc1c(C(=O)O)n(C)c2ccccc12", "activity change, negative = inhibition": "inactive: -2.84%"}, {"compound": "COc1ccccc1OCCCC(=O)Nc1nccs1", "activity change, negative = inhibition": "inactive: 46.5%"}, {"compound": "COc1ccc(Nc2cc(C(=O)NCCCN3CCN(C)CC3)c3ccccc3n2)c(OC)c1", "Potency": "inconclusive [inhibitor, single point]"}, {"compound": "CCN(CC)S(=O)(=O)c1cccc(NC(=O)/C=C/c2ccc([N+](=O)[O-])cc2)c1", "activity change, negative = inhibition": "inactive: -0.898%"}, {"compound": "Cc1cnc(NS(=O)(=O)c2ccc(Cl)cc2)c(Br)c1", "Potency": "inconclusive [inhibitor, partial curve, poor fit]"}, {"compound": "Cn1cc(CCCC(=O)NCc2ccc(F)cc2)c2ccccc21", "Potency": "inconclusive [inhibitor, partial curve]"}, {"compound": "COc1cc(N)c(Cl)cc1C(=O)OCC(=O)c1ccc2c(c1)NC(=O)CO2", "Potency": "inconclusive [inhibitor, single point]"}, {"compound": "O=C(C[N+]1(CC#Cc2ccccc2)CCOCC1)c1ccc(Cl)cc1", "Potency": "inconclusive [inhibitor, single point]"}, {"compound": "CC(C)(C)SCCNC(=O)/C=C/c1ccc(F)cc1", "Potency": "inconclusive [inhibitor, single point]"}, {"compound": "CC(C)C[C@H](NC(=O)c1nc[nH]c1C(=O)NCc1ccc(CNC(=O)OC(C)(C)C)cc1)C(=O)OCc1ccccc1", "Potency": "inconclusive [inhibitor, full curve]"}, {"compound": "C=CCSc1nsc(NC(=O)Nc2ccc(F)cc2)n1", "Potency": "inconclusive [inhibitor, partial curve, poor fit]"}, {"compound": "Cc1ccc(S(=O)(=O)C(F)(F)F)cc1NC(=O)c1cccnc1", "Potency": "inconclusive [inhibitor, single point]"}, {"compound": "CCOC(=O)C(C)Sc1nc(-c2ccco2)cc(C(F)(F)F)c1C#N", "note": "(configuration not stated)", "Potency": "inconclusive [inhibitor, partial curve]"}, {"compound": "Cc1cc(Nc2ccccc2)n(C(=O)c2ccc(Cl)cc2)n1", "activity change, negative = inhibition": "inactive: -14.5%"}, {"compound": "CC(C)C[C@H](NC(=O)c1nc[nH]c1C(=O)NC1CCN(C(=O)OC(C)(C)C)CC1)C(=O)OCc1ccccc1", "Potency": "inconclusive [inhibitor, partial curve, poor fit]"}, {"compound": "COc1ccc(OC)c(Nc2nc(-c3ccc(O)c(O)c3)cs2)c1", "Potency": "inconclusive [inhibitor, single point]"}, {"compound": "COc1ccc(/C=N\\NC(=O)c2ccc([N+](=O)[O-])cc2)cc1COc1c(F)c(F)cc(F)c1F", "Potency": "inconclusive [inhibitor, single point]"}, {"compound": "CCCCCCCCCCCCOCCCN", "activity change, negative = inhibition": "inactive: -11.1%"}]}]}
